Here are results for 65 molecules from paper PMC6919601, “Identification of Plasmodium dipeptidyl aminopeptidase allosteric inhibitors by high throughput screening” (PLoS ONE, 2019).

Out of some 110,000 compounds screened, about 230 (0.21%) showed an effect of 50% or more. This is one part of the list.
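Also: 30 min substrate incubation versus DMSO and 10 µM JCP410 controls.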

Chain of DPAP1 (Q8IIJ9 whole entry, looked up): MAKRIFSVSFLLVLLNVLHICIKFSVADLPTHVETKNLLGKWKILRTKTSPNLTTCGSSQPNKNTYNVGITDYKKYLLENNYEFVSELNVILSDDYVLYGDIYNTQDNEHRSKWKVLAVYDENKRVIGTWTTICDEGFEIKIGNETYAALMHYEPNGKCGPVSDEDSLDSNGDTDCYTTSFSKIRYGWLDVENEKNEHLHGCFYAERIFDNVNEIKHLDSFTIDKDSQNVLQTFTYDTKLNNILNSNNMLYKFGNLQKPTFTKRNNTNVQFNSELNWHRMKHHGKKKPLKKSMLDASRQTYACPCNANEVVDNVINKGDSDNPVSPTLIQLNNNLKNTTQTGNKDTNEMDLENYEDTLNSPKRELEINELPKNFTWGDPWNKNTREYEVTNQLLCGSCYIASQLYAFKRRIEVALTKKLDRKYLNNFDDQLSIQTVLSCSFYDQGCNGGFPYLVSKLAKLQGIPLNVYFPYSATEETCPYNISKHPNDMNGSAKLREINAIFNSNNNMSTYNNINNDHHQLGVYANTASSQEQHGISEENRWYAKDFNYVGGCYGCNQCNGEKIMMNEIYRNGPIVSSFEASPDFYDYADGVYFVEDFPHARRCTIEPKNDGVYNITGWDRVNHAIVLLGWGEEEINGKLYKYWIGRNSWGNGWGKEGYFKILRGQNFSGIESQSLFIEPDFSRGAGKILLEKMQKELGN

The assay has as its target DPAP1 (Plasmodium falciparum, UniProt Q8IIJ9). As to the kind of experiment: primary screen, percent inhibition; read by cleavage of a fluorogenic dipeptide substrate; higher = more effect of the substance. Also on record: species or system P. falciparum D10 trophozoite lysates; single well.
`OCC1CCCCN1Cc1c(F)cccc1F` (centres unmarked): the “% Inhibition @ 10 uM” value turned out to be 1.9%. Next, `O=C1c2ccccc2C(=O)N1c1cc(Cl)ccc1O`: -1.95%. Next, `CN(C)CCCNC(=O)COc1ccc(-c2nn(C)c(=O)c3ccccc23)cc1`: -1.65%; `COc1ccc(OC)c(NC(=O)CN(c2cccc(F)c2)S(C)(=O)=O)c1`: -6.83%; `N#CC1=C(N)OC2=C(C(=O)CCC2)C1c1cccs1` (centres unmarked): -6.82%.

On to `O=C(O)CNC(=O)/C=C/c1cccs1`, for which the “% Inhibition @ 10 uM” value is recorded as 0.718%. The same measure for `CCOC(c1ccc(Cl)cc1)P(=O)(OCC)OCC` (centres unmarked): 1.54%; for `Cc1cc(C)nc(/N=C(\N)Nc2cccc(N)c2)n1`: -2.58%. Next, `CC12CN3CC(C)(CN(C1)C3c1cccs1)C2O` (centres unmarked): 4.03%; `COc1ccc(Cl)cc1NC(=O)c1cccs1`: -2.6%; `Oc1ccc(Cc2cnc(O)nc2O)cc1`: -1.22%. Next, `N#CCCS(=O)(=O)c1cccc2c(S(=O)(=O)CCC#N)cccc12`: 3.01%; `CCCCN(CCCC)CC(=O)Nc1c2c(nc3ccccc13)N(C)CC2`: 1.9%. For `CN1CCN(c2ccc(Nc3c4ccccc4nc4ccccc34)cc2)CC1`, the “% Inhibition @ 10 uM” value is 25.4%. Take `COc1ccccc1C(=O)Nc1nc2n(n1)C(c1ccccc1)C=C(c1ccc(Cl)cc1)N2` (centres unmarked): the “% Inhibition @ 10 uM” value is given as -0.386%. Next, `Brc1ccc(-c2cn3c4ccccc4nc3n2CCN2CCOCC2)cc1`: -3.27%; `CCc1c(C)nc2nnc(-c3ccccc3OC)n2c1O`: -0.597%; `Cc1cccc(-n2c(C)cn3c4c(=O)n(C)c(=O)n(C)c4nc23)c1`: -2.67%. Consider `Cc1ccc(N2CCN(CC(=O)Nc3ccc(Br)cc3)CC2)c(C)c1`, for which the “% Inhibition @ 10 uM” value was determined as 0.755%. Next, `CCOc1ccc(N(C(C)C(=O)Nc2ccccc2Cl)S(C)(=O)=O)cc1` (centres unmarked): -2.28%; `COc1ccc2[nH]cc(CCNC(=O)c3ccc([N+](=O)[O-])cc3)c2c1`: 3.16%. Next, `O=C1OC(OC(=O)c2ccco2)C(Cl)=C1Cl` (centres unmarked): 1.84%; `O=C(O)C1CCCCC1C(=O)Nc1ccc(N2CCN(CCO)CC2)cc1` (centres unmarked): -2.99%; `COC(=O)C1=C(C)N=C(C)/C(=C(/O)OC)C1c1ccc(Cl)c(Cl)c1` (centres unmarked): -1.03%.

With `Cc1cc(C)nc(NS(=O)(=O)c2ccc(NC(=O)C(C)Oc3ccccc3F)cc2)n1` (centres unmarked), the “% Inhibition @ 10 uM” value is -1.52%.

`CCN(Cc1ccccc1)C(=O)c1c(C)nn(-c2ccccc2)c1-n1cccc1`: the “% Inhibition @ 10 uM” value was -3.35%. For `CCN(CC)CCNC(=O)Cn1c(C(F)(F)F)nc2ccccc21`, the “% Inhibition @ 10 uM” value was -1.73%. Next, `O=C(O)c1cccc(NS(=O)(=O)c2cccc(S(=O)(=O)c3ccc(Cl)c(Cl)c3)c2)c1`: 11.7%; `CC(C)Oc1ccc(CNC2CCOC(C)(C)C2)cc1` (centres unmarked): -7.94%; `CC(C)C(NC(=O)OCc1ccccc1)C(=O)NC1CCCCC1` (centres unmarked): 0.843%. The same measure for `Cc1c(C(=O)NCCC2=CCCCC2)sc2ncn(CC(=O)N3CC(C)CC(C)C3)c(=O)c12` (centres unmarked): -5.76%; for `COC(=O)c1ccc(NC(=O)c2ccco2)cc1`: -0.0404%; for `CC(Oc1cccc(Cl)c1)C(=O)N1CCN(C/C=C/c2ccccc2)CC1` (centres unmarked): 1.59%.

As to `COc1ccc(/C=N/n2cnnc2)cc1O`, the “% Inhibition @ 10 uM” value is reported as 4.41%. On to `O=c1oc2ccc3ccccc3c2cc1-c1nc2ccccc2o1`, for which the “% Inhibition @ 10 uM” value amounted to 4.12%. For `COc1ccc(CCNC(=O)CCCn2sc3ccccc3c2=O)cc1OC`, the “% Inhibition @ 10 uM” value was -4.68%. The same measure for `COc1ccccc1C1Oc2ccc(Cl)cc2C2=C1C(c1cccs1)n1ncnc1N2` (centres unmarked): -1.62%; for `COc1ccc(C(=O)NCc2cccnc2)cc1OC`: -1.57%; for `CCN(CC)C(=O)C1CCCN(Cc2ccc(F)c(Br)c2)C1` (centres unmarked): -5.57%. The same measure for `Cc1ccc(C2=[N+]([O-])C(C)(C)C(c3ccc(C)cc3)=[N+]([O-])C2(C)C)cc1`: 1.63%. The same measure for `CCc1ccc(C2CC(c3ccc(Cl)cc3)Nc3nnnn32)cc1` (centres unmarked): 4.86%; for `CSc1ncc(Nc2nc(C)cs2)cn1`: 1%; for `CSc1nn(-c2nc3c(C)cccc3s2)c(N)c1C#N`: -0.99%. `CN(C)CCOC(c1ccc(F)cc1)c1ccc(F)cc1`: the “% Inhibition @ 10 uM” value amounted to 3.05%.

Consider `CCOC(=O)c1c(C)c(-c2ccccc2)n(CC(=O)Nc2nccs2)c1C`, for which the “% Inhibition @ 10 uM” value was determined as 3.32%.

Regarding `CCOc1cc(C2C(C#N)=C(N)Oc3[nH]nc(-c4ccc(C)cc4)c32)ccc1O` (centres unmarked), the “% Inhibition @ 10 uM” value was -2.78%.

Consider `c1ccc(N2CCN(c3nn4nnnc4c4ccccc34)CC2)nc1`, for which the “% Inhibition @ 10 uM” value is -0.704%. Turning to `c1ccc(-c2nc3cccnc3nc2N2CCCCC2)cc1`, the “% Inhibition @ 10 uM” value was 5.32%. Next, `CSc1ccc(C2C(C#N)=C(N)Oc3c2c(O)nc2ccccc32)cc1` (centres unmarked): 1.26%; `Cc1c(NC(=O)/C(O)=C/C(=O)c2ccccc2)c(=O)n(-c2ccccc2)n1C`: -6.46%; `C=CCn1c(CNC(=O)c2cccc(C)c2)nc2ccccc21`: 0.505%.

With `O=S(=O)(c1cccnc1Nc1cccc(C(F)(F)F)c1)N1CCOCC1`, the “% Inhibition @ 10 uM” value was 1.94%. The same measure for `Cc1ccc(-c2cn3nc(C4CC4)sc3n2)cc1`: 7.04%; for `C#CCSc1nc(N)c2c3c(sc2n1)CCCC3`: 3.47%; for `COc1ccc(Cc2nc(-c3ccc(-n4cccc4)cc3)no2)cc1OC`: -5.11%.

Consider `COc1ccc(C)c2sc(N(CCN(C)C)C(=O)Cc3ccccc3)nc12`, for which the “% Inhibition @ 10 uM” value was determined as 4.19%. The same measure for `O=c1oc2c3c(c(Cl)cc2c2c1CCC2)OCN(Cc1ccccc1)C3`: -0.808%; for `Cc1ccc2nc3c(cc(C#N)c(=O)n3-c3nccs3)c(=O)n2c1`: 2.73%. As for `CCc1ccc(Oc2nc3ccccn3c(=O)c2/C=C(\C#N)S(=O)(=O)c2ccccc2)cc1`, the “% Inhibition @ 10 uM” value is listed as 3.12%. Next, `Cc1ccc(C)c(N2C(=O)C3CCC(C)CC3C2=O)c1` (centres unmarked): -0.999%. The same measure for `Cc1nn(Cc2ccc(F)cc2)c(C)c1NC(=O)COCc1cc(-c2ccc3c(c2)OCO3)on1`: 0.56%.

With `O=C1NCc2ccccc2-c2ccccc21`, the “% Inhibition @ 10 uM” value was -1.54%. The same measure for `Cc1nc(SCC(=O)c2ccc(O)c(O)c2)c(C#N)c(-c2ccc(Br)cc2)c1C#N`: 0.587%. Next, `CCOC(=O)c1s/c(=N\C(=O)c2cccc3ccccc23)n(C)c1C`: 1.39%.

Turning to `C=CCn1c(=O)c(C(=O)NCc2ccccn2)c(O)c2ccccc21`, the “% Inhibition @ 10 uM” value is reported as -0.864%.
